PubChem BioAssay AID588342 (National Center for Advancing Translational Sciences (NCATS), 2011)
Out of some 360,000 compounds screened, about 25,000 (6.9%) were called active. The inconclusive results got no clear call from the source; some entries with a clear call stand among them for comparison. Calls come from the whole dose curve; as a rule, active = well fitted inhibition curve with a large enough effect; inconclusive = small, poorly fitted or top-dose-only effect; inactive = flat fitted curve, though single readings scatter. Potencies of inconclusive entries are doubtful fits and often do not repeat.

What follows are compounds tested against Luciferin 4-monooxygenase (Photinus pyralis) (UniProt P08659) (assay: qHTS profiling assay for firefly luciferase inhibitor/activator using purifed enzyme and Km concentrations of substrates (counterscreen for miR-21 project)). Conditions: purified FLuc, luminescence inhibition; series mostly up to 57.5 µM.
Chain of UniProt P08659 (P08659 whole entry, looked up): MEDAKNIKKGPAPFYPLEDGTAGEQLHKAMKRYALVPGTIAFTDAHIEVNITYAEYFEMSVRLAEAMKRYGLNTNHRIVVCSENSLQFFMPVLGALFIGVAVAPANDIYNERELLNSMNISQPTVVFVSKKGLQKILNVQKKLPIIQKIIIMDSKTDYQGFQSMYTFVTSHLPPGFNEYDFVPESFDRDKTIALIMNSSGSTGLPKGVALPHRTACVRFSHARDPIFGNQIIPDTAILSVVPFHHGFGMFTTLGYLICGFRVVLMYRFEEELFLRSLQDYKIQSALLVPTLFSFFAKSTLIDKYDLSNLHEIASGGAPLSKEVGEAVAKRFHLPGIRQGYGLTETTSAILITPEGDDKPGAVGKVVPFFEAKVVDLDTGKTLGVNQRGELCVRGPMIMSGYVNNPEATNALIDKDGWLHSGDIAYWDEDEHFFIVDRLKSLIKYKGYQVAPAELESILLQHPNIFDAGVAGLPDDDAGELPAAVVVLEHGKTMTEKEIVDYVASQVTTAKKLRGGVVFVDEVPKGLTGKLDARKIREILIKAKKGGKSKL
How it was run: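 Biochemical qHTS of compounds, final roughly 60 µM downward over six points, against 10 nM purified firefly luciferase using Km concentrations of substrates (10 uM D-luciferin, 10 uM ATP) in Tris acetate pH 7.5 buffer; luminescence output.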
Note: nearly all actives have a fitted effect of over 55% in size.
Potency is the fitted concentration of half-maximal effect; tags give direction and shape of the fitted curve.

| SMILES | Potency |
| --- | --- |
| CCOc1ccc(C(=O)c2ccc(OCC)c(N)c2)cc1N | inconclusive: 21.3 µM [inhibitor, single point] |
| CCCCc1nnc(NC(=O)c2oc3ccc(OC)cc3c2C)s1 | inactive |
| CC(=O)NCCNc1nc2c(-c3ccccc3)nnn2c2ccccc12 | inconclusive: 37.9 µM [inhibitor, partial curve, poor fit] |
| O=C(O)/C=C(\Oc1ccccc1)C1(O)CCCCC1 | inactive |
| COc1ccccc1C1CC(c2ccco2)=NN1c1ccccc1 (stereo not given) | inactive |
| COc1ccccc1N1CCN(C(=O)c2ccc(NC(C)=O)cc2)CC1 | inactive |
| COC(=O)Cc1ccc(NC(=S)N2CCCC(CO)C2)cc1 (stereo not given) | active: 0.849 µM |
| COc1ccc(-c2cc(C(=O)O)c3sc(N4CCCCC4)nc3n2)cc1OC | active: 4.78 µM |
| O=C(Cc1ccc(Cl)cc1Cl)Nc1cccc(S(=O)(=O)Nc2ccccc2F)c1 | inconclusive: 13.5 µM [inhibitor, partial curve] |
| N#Cc1ccccc1NC(=O)Nc1cccc(Cl)c1 | inconclusive: 37.9 µM [inhibitor, single point] |
| Cc1ccc(CNC(=O)C2CCN(S(=O)(=O)c3ccc4[nH]c(=O)ccc4c3)CC2)cc1 | inactive |
| Cc1nc2nc[nH]n2c(=O)c1CCC(=O)Nc1ccc(F)cc1 | inconclusive: 30.1 µM [inhibitor, single point] |
| Cc1cccc(N/N=C/c2ccncc2)c1 | active: 15.1 µM |
| CCOc1ccccc1CNc1ccc2cc(S(=O)(=O)N3CCC(C)CC3)ccc2n1 | inactive |
| O=C1/C(=C\c2ccc(O)c(O)c2)C(c2ccccc2)=NN1c1ccccc1 | active: 19 µM |
| O=[N+]([O-])c1ccc2oc(C3CCCCC3)nc2c1 | active: 16.9 µM |
| COc1cc(/C=C/C(=O)OCC(=O)Nc2cc(S(=O)(=O)N3CCCCC3)ccc2C)ccc1O | inconclusive: 26.9 µM [inhibitor, partial curve, poor fit] |
| CCOc1ccccc1NC(=O)c1ccc2c(Cl)c3c(nc2c1)CCC3 | active: 0.849 µM |
| CCn1c(SCC(N)=O)nnc1-c1cc2c(C)nn(-c3ccccc3)c2s1 | active: 15.1 µM |
| CC1=CC(=C2C(=O)c3ccccc3C2=O)C=C(C)N1C | active: 12 µM |
| COc1cc(/C=N/NC(=O)C2C3CCCCC32C)cc(Br)c1O (stereo not given) | inconclusive: 37.9 µM [inhibitor, partial curve, poor fit] |
| COc1cc(/C=C2\CC/C(=C\c3cc(OC)c(O)c(OC)c3)C2=O)cc(OC)c1O | inconclusive: 16.9 µM [inhibitor, partial curve] |
| CCc1ccc(NC(=O)Cn2c(=O)n(CCCCC(=O)NCc3ccc4c(c3)OCO4)c(=O)c3ccccc32)cc1 | inactive |
| CCOc1ccc(CN2CCN(C(=O)c3cccc4ccccc34)CC2)cc1 | inactive |
| CC(CN1CCCCC1)OC(=O)c1cc2ccccc2o1 (stereo not given) | inconclusive: 21.3 µM [inhibitor, partial curve, poor fit] |

| SMILES | Potency |
| --- | --- |
| CCN(CC)c1ccc(N=CN2CCOCC2)cc1 | inconclusive: 37.9 µM [inhibitor, partial curve, poor fit] |
| CC1CCCC(C)N1C(=O)COC(=O)COc1ccccc1C#N (stereo not given) | inactive |
| O=c1oc2ccccc2cc1-c1cn(-c2ccccc2)c(=S)[nH]1 | active: 0.849 µM |
| CCN(CC)c1ccc(/C=N/NC(=O)C(O)c2ccccc2)cc1 (stereo not given) | inconclusive: 26.9 µM [inhibitor, single point] |
| Cc1cc2oc(=O)cc(CN3CCC(C)CC3)c2c(C)c1Cl | inconclusive: 5.36 µM [inhibitor, partial curve] |
| Cc1ccc(C(=O)N/N=C2/NC(=O)CC(C(=O)Nc3ccccc3)S2)cc1 (stereo not given) | inconclusive: 37.9 µM [inhibitor, single point] |
| CCC(c1nnnn1C(C)(C)CC)N(CCCO)Cc1cc2cc(C)cc(C)c2[nH]c1=O (stereo not given) | inactive |
| COc1ccc2nc(NC(=O)CSCC(=O)Nc3cc(C)on3)sc2c1 | active: 16.9 µM |
| CCCC(=O)OC1CC(C)N(C(=O)c2ccccc2)c2ccc(C)cc21 (stereo not given) | inactive |
| CCOc1cc(C(=O)Nc2ccccc2F)cc(Br)c1OCC | inactive |
| Cc1ccc(OCC(=O)Nc2nnc(S(=O)(=O)N3c4ccccc4CC3C)s2)cc1 (stereo not given) | inconclusive: 37.9 µM [inhibitor, single point] |
| O=C(NCCc1ccccc1)C1=COCCO1 | active: 16.9 µM |
| CC(=O)N1CCc2nc3sc(C(=O)c4ccc(F)cc4)c(N)c3c(C(F)(F)F)c2C1 | inconclusive: 21.3 µM [inhibitor, partial curve, poor fit] |
| CCOCCCn1c(SCc2nc3sc(C(=O)O)c(C)c3c(=O)[nH]2)nnc1-c1ccc(Cl)cc1 | inconclusive: 37.9 µM [inhibitor, partial curve, poor fit] |
| O=C(c1cccc(Cl)c1)N1CCN(c2ccccn2)CC1 | inactive |
| CCC(Oc1ccccc1)C(=O)N1CCN(C(=O)C(CC)Oc2ccccc2)CC1 (stereo not given) | inactive |
| COc1cccc(NC(=O)Cc2ccc3ccccc3c2)c1 | inconclusive: 23.9 µM [inhibitor, partial curve, poor fit] |
| O=C(COC(=O)c1cccnc1)c1ccc(Cl)c(Cl)c1 | active: 16.9 µM |
| CC(=O)c1cccc(NC(=O)c2nc(-c3ccccc3)n(-c3cccc(Cl)c3)n2)c1 | inconclusive: 10.7 µM [inhibitor, partial curve] |
| COc1ccccc1CNC(=O)C(=O)NCC1OCCN1S(=O)(=O)c1ccc(Br)cc1 (stereo not given) | inactive |
| O=C(O)Cn1cc(/C=C2/NC(=O)N(c3ccc(Cl)cc3)C2=O)c2ccccc21 | inconclusive: 37.9 µM [inhibitor, partial curve, poor fit] |
| NC1=NC(=O)/C(=C/c2cn(Cc3ccccc3)c3ccccc23)S1 | inactive |
| CC(CN1C(C)CCCC1C)OC(=O)c1ccc(Cl)cc1Cl (stereo not given) | inactive |
| C/C(=N/NC(=O)c1cccc(C)c1)c1c(O)cc(C)oc1=O | inconclusive: 30.1 µM [inhibitor, single point] |
| Oc1ccc(-c2cn3ccccc3n2)cc1O | active: 12 µM |
